# Screen size: about 310,000 compounds; about 2,200 (0.71%) showed an effect of 50% or more. The effect is printed as a negative number. The list shows a part of the results.
# Molecular target: human ether-à-go-go-related gene (hERG) potassium channel (human, UniProt Q12809)
# Test: primary screen, population patch clamp on CHO cells stably expressing hERG
# Chain of human ether-à-go-go-related gene (hERG) potassium channel (Q12809 whole entry, looked up): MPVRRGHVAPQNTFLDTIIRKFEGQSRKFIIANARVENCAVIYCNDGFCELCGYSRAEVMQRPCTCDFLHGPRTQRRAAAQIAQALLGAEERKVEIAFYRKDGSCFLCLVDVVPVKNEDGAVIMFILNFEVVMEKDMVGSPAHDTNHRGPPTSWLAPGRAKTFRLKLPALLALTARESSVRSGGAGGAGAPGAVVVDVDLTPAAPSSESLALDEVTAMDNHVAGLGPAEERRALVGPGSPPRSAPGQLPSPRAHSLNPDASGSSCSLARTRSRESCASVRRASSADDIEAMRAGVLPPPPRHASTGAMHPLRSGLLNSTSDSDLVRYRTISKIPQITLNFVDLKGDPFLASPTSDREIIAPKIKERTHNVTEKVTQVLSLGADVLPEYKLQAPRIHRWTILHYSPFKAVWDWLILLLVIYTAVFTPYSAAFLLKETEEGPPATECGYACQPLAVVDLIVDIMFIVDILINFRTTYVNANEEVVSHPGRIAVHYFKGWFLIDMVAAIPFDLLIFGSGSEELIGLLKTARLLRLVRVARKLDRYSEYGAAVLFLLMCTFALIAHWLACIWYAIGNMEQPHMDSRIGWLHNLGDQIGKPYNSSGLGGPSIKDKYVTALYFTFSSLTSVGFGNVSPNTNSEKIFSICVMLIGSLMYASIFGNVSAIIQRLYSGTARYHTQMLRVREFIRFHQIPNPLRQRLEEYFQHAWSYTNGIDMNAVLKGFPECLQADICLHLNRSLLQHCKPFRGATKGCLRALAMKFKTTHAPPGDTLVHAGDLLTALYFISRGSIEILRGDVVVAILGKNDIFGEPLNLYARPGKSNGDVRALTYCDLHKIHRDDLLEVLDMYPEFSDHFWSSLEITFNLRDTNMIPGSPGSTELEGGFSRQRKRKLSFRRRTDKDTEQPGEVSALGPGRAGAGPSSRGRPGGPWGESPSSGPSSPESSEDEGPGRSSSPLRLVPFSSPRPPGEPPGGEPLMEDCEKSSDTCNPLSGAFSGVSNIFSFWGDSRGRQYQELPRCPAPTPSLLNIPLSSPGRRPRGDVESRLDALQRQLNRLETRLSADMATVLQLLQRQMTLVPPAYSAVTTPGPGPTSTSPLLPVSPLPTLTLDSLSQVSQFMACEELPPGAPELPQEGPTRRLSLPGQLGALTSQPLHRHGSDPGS
row,SMILES,"hERG current change (%, negative = inhibition) at 1uM [%]"
1,COc1cccc(CNC(=O)CN2C(=O)CC(c3ccccc3)=Nc3ccccc32)c1,-5.42
2,CCC(CC)N1CCN(C(=O)c2cccc(Cl)c2)CC1.O=C(O)C(=O)O,8.52
3,O=C(NCc1ccc(N2CCCC2=O)cc1)Nc1cccc(Cl)c1,3.8
4,CCOc1ccc(OCC(=O)NCc2n[nH]c(=O)c3ccccc23)cc1,9.85
5,C=CCNC(=O)C1CC(=O)N(c2ccc(OCC(=O)Nc3c(C)cccc3C)cc2)C1 (stereo not drawn),11.8
6,COCCN1Cc2cccc(C(=O)Nc3ccc(S(=O)(=O)N4CCCCC4)cc3)c2C1=O,8.61
7,Cl.Oc1ccc(Cl)cc1CNCc1cccc2ccccc12,-2.78
8,CN(C)CCOC(=O)C1(c2ccccc2)CCCC1.Cl,8.03
9,Cc1c(NC(=O)CSCc2ccc(Cl)cc2Cl)cccc1C(=O)O,8.81
10,Cc1ccc(NC(=O)CSc2nc(N)c3c4c(sc3n2)CSC(C)(C)C4)cc1,17.5
11,CC(=O)c1ccc(NC(=O)NC2CCCc3ccccc32)cc1 (stereo not drawn),-9.72
12,O=C(O)c1cccnc1SCc1ccc([N+](=O)[O-])cc1,11.9
13,Cc1ccccc1-n1cc(CNC(=O)CC2C(=O)NCCN2C/C=C/c2ccccc2)cn1 (stereo not drawn),8.08
14,CC(=O)c1ccc(OCC(=O)Nc2cccc(S(=O)(=O)N3CCCC3)c2)cc1,14.5
15,CCOC(=O)N1CCN(C(=O)c2ccc(N(Cc3ccccc3Cl)S(C)(=O)=O)cc2)CC1,10.8
16,CCN(CC)S(=O)(=O)c1ccc(C(C)NC(=O)Cc2c[nH]c3ccccc23)cc1 (stereo not drawn),14.2
17,CS(=O)(=O)N(CC(=O)O)c1cc(Cl)cc(Cl)c1,7.58
18,Cc1ccc([N+](=O)[O-])cc1NC1OC(CO)C(O)C1O (stereo not drawn),7.5
19,COC(=O)c1cc(C(=O)Nc2cc(C)on2)cc([N+](=O)[O-])c1,14.1
20,CCN1CCc2c(sc(NC(=O)c3ccc4ccccc4c3)c2C(N)=O)C1.Cl,10.1
21,O=S(=O)(c1cc(F)ccc1F)N1CCC2(CC1)OCCN2S(=O)(=O)c1ccccc1,3.79
22,c1ccc2c(c1)OCC(c1nnc3n1-c1ccccc1SC3)O2 (stereo not drawn),6.06
23,O=C(NCc1ccccn1)Nc1ccccc1,10.9
24,CN1CCN(S(=O)(=O)c2ccc(SCCOc3ccc(Cl)cc3)nc2)CC1,7.43

# Source: paper PMC4336329 (PLoS ONE, 2015)
